The values below come from PubChem BioAssay AID938 (National Center for Advancing Translational Sciences (NCATS), 2007).

Each structure is given as a SMILES string. The campaign covered roughly 73,000 compounds. About 1,800 (2.5%) were called active. Roughly 13% stayed inconclusive and do not appear here. Calls come from the whole dose curve; as a rule, active = well fitted activation curve with a large enough effect; inconclusive = small, poorly fitted or top-dose-only effect; inactive = no such curve, though single readings can be large or run the other way. The list shows a part of the results, in another mix than the full data. A structure can be active in one record and inactive in another.
Potency is the fitted concentration of half-maximal effect.

The test is described as follows: qHTS Assay for Agonists of the Thyroid Stimulating Hormone Receptor: Activators of Intracellular cAMP Concentrations in Parental HEK 293. For activation: % of control where 0% means no effect. Note: nearly all actives have a fitted effect of over 55% in size. To be noted: parental HEK293 CNG cAMP sensor, membrane potential fluorescence; series mostly up to 57.1 µM; activation: at the top concentration. An excerpt: NIH Chemical Genomics Center [NCGC]
NIH Molecular Libraries Screening Centers Network [MLSCN]
PI Name: Dr. Marvin Gershengorn
This cell based assay utilized a cyclic nucleotide gated ion channel (CNG) as a biosensor for cAMP induction. HEK 293 cells stably expressing the modified CNG were purchased from BD biosciences (http://www.atto.com/products/actone/features_benefits.shtml) . Stimulation of cAMP production causes the CNG to open and subsequent membrane depolarization to occur. A fluorescent membrane potential dye (BD biosciences) was utilized to detect cAMP stimulation in cells.
The cells were maintained in DMEM medium (Invitrogen) containing 10 % FBS (Hyclone), 100 units/ml Penicillin, 100 ug/ml Streptomycin (Invitrogen), and 250 ug/ml Geneticin (Invitrogen) and 1 ug/ml Puromycin (Invitrogen) at 37C in 5% CO2. This assay was used as a counterscreen to "qHTS Assay for Agonists of the Thyroid Stimulating Hormone Receptor", to control for compounds signaling through endogenous receptors and other targets of HEK 293 cells.
NCGC Assay Protocol Summary:
High Throughput Screening. Freshly passaged cells were dispensed into 1536-well assay plates at 4 ul/well in DMEM containing phenol red (Invitrogen), 10% FCS (Hyclone), and 100 units/ml Penicillin, 100 ug/ml Streptomycin (Invitrogen) and incubated at 37 C with 5% CO2 for 20 to 36 hrs before the robotic screening. The screen was initiated by addition of 4 ul/well membrane potential dye containing 100 uM RO 20-1724 (Sigma Aldrich), followed by 60 min incubation at room temperature to allow for dye equilibration across the cell membrane. 23 nl/well compound or control was then added to the assay plates, which were incubated for additional 30 min before reading a Envision fluorescence plate reader (Perkin Elmer) in bottom-read mode for fluorescence intensity (emission at 590 nm).
Keywords: cAMP, CNG Ion Channel, quantitative high throughput screening, qHTS, HTS, probe identification, CNG, cAMP, cyclic nucleotide gated ion channel PubChem
On the technique in general: qHTS replaces the single test concentration by a dilution series.
Turning to `NCC(O)c1ccc(O)cc1` (stereo not drawn), the Potency entry is “inactive”.

On to `C[C@]12N[C@@H](Cc3ccccc31)c1ccccc12`, for which the Potency entry is “inactive”.

As for `CC(O)CCl` (stereo not drawn), the “activation” value was inactive: -11.8%.

On to `O=C(C1CCCCC1)N1CCC(c2nc3c(nnn3Cc3c(F)cccc3Cl)c(=O)[nH]2)CC1`, for which the “activation” value is inactive: -43.9%.

On to `N#CC(C#N)=Cc1ccc(O)c(O)c1`, for which the “activation” value was inactive: 51.8%.

Turning to `Cc1cc(C)c(N)cc1C`, the “activation” value is inactive: 41.7%.

For the molecule `Fc1ccc(C(OCCN2CCN(C/C=C\c3ccccc3)CC2)c2ccc(F)cc2)cc1`, the “activation” value is inactive: -30.9%.

On to `O=c1[nH]c2c(c(=O)n1C1CCCCC1)CCC2`, for which the “activation” value is inactive: -55.6%.

On to `O=C(NC[C@@H]1CCCCN1)c1cc(OCC(F)(F)F)ccc1OCC(F)(F)F`, for which the “activation” value is inactive: 11.6% [at 25.6 µM].

Consider `COc1cc2c(c(OC)c1OC)-c1ccc(OC)c(=O)cc1[C@H](NC(C)=O)CC2`, for which the Potency result is “inactive”.

Turning to `NC(N)=Nc1ccc2[nH]c3c(c2c1)C[C@]1(O)[C@@H]2Cc4ccc(O)c5c4[C@]1(CCN2CC1CC1)[C@@H]3O5`, the “activation” value is inactive: 0.177%.

For the molecule `CC(C)c1ccc2c(c1)CC[C@@H]1[C@@](C)(CN)CCC[C@@]21C`, the “activation” value was inactive: -30.1%.

As to `CCCCCCC(C)(C)c1ccc([C@@H]2C[C@H](O)CC[C@@H]2CCCO)c(O)c1`, the “activation” value is inactive: 27.2%.

For the molecule `C=CC(=O)NCNC(=O)C=C`, the “activation” value was inactive: -8.55%.

`C/C=C\c1ccc(OC)cc1`: the “activation” value was inactive: -0.0034%.

As to `CCN(CC)C(=O)N[C@H]1C=C2c3cccc4[nH]cc(c34)C[C@@H]2N(C)C1`, the “activation” value is inactive: 6.28% [at 25.6 µM].

With `C[C@]12CC[C@H](O)C[C@@H]1CC[C@H]1[C@H]2CC[C@]2(C)C(=O)CC[C@@H]12`, the Potency result was “inactive”.

Take `CC(C)(COCC1CO1)COCC1CO1` (stereo not drawn): the “activation” value is inactive: -0.834%.

With `NCC(CC(=O)O)c1ccc(Cl)cc1` (stereo not drawn), the “activation” value was inactive: -1.1%.

As for `CN(c1ccccc1)S(=O)(=O)c1cccc(C(=O)N2CCN(c3ccccn3)CC2)c1`, the Potency is active: 15.8 µM.

`NC[C@H](CC(=O)O)c1ccc(Cl)cc1`: the “activation” value is inactive: 2.83%.

For `Oc1ccc2[nH]cc(CCCCN3CC=C(c4ccccc4)CC3)c2c1`, the “activation” value was inactive: -65.5%.

On to `C=C(C)[C@H]1CN[C@H](C(=O)O)[C@@H]1CC(=O)O`, for which the “activation” value is inactive: 8.38%.

`N[C@@H](CP(=O)(O)O)C(=O)O`: the activation is inactive: -0.232% [at 11.4 µM].

Turning to `O=C(O)CBr`, the “activation” value is inactive: -21.4%.

As to `COc1ccc2c(c1OC)C(=O)O[C@H]2[C@H]1c2cc3c(cc2CCN1C)OCO3`, the Potency entry was “inactive”.

`ClC(Cl)=C(Cl)Cl`: the Potency result was “inactive”.

On to `CC(C)(C)c1cc(C=C(C#N)C#N)cc(C(C)(C)C)c1O`, for which the Potency was active: 0.794 µM.

For the molecule `COc1ccc2c(c1OC)C(=O)O[C@@H]2[C@H]1c2cc3c(cc2CCN1C)OCO3`, the “activation” value was inactive: 25.1%.

With `O=C(O)c1nn(Cc2ccc(Cl)cc2Cl)c2ccccc12`, the “activation” value is inactive: 3.5%.

On to `C=CCN1CC[C@@]23c4c5ccc(O)c4O[C@H]2/C(=N\N=C2/CC[C@@]4(O)[C@H]6Cc7ccc(O)c8c7[C@@]4(CCN6CC=C)[C@@H]2O8)CC[C@]3(O)[C@@H]1C5`, for which the “activation” value is inactive: 4.73%.

For `Cc1cc(-c2cc(C)c(N)c(C)c2)cc(C)c1N`, the “activation” value was inactive: -4.21%.

With `N[C@@H](CCP(=O)(O)O)C(=O)O`, the Potency result is “inactive”.

Regarding `CC[C@@H]1[C@@H]2C[C@H]3[C@H]4N(C)c5ccccc5[C@@]45C[C@@H]([C@@H]2[C@@H]5O)N3[C@H]1O`, the “activation” value is inactive: 7.69% [at 25.6 µM].

Consider `C=CCc1ccc(OC)cc1`, for which the “activation” value was inactive: 11.1%.

As to `Cc1ccccc1`, the Potency entry is “inactive”.

On to `O=C(CCCN1CCC2(CC1)C(=O)NCN2c1ccccc1)c1ccc(F)cc1`, for which the Potency entry is “inactive”.

`NC[C@H](O)c1ccc(O)cc1`: the “activation” value was inactive: 4.67% [at 25.6 µM].

As to `Nc1ccc(Cl)cc1N`, the “activation” value is inactive: -5.5%.

Turning to `CC[C@H]1CN2CC[C@@H]1C[C@H]2[C@@H](O)c1ccnc2ccc(OC)cc12`, the “activation” value is inactive: 16.3% [at 25.6 µM].

Consider `C[C@@H]1O[C@@H](O[C@H]2C[C@@H](O)[C@]3(CO)[C@@H]4[C@@H](O)C[C@]5(C)[C@H]([C@@H]6COC(=O)C6)CC[C@@]5(O)[C@H]4CC[C@@]3(O)C2)[C@H](O)[C@H](O)[C@@H]1O`, for which the Potency is active: 25.1 µM.

For the molecule `O=C1C2CC=CCC2C(=O)N1SC(Cl)(Cl)Cl` (stereo not drawn), the Potency result was “inactive”.

As to `Cc1ccc2c(c1N)C(=O)c1ccccc1C2=O`, the “activation” value was inactive: -50.7%.

As to `Cc1nc(-c2ccc(-c3ccc(C(=O)N4CCc5cc6c(cc54)C4(CCN(C)CC4)CO6)cc3)c(C)c2)no1`, the “activation” value was inactive: -9.66%.

Turning to `CC(C)c1cccc(C(C)C)c1O`, the Potency entry was “inactive”.

Take `CN1[C@H]2CC(OC(=O)[C@@H](CO)c3ccccc3)C[C@H]1[C@H]1O[C@H]12` (stereo partly drawn): the “activation” value is inactive: 8.99% [at 25.6 µM].

In the case of `COc1ccc2c(c1OC)C(=O)OC2C1c2cc3c(cc2CCN1C)OCO3` (stereo not drawn), the “activation” value was inactive: 8.04%.

Turning to `c1ccc(C2CO2)cc1` (stereo not drawn), the “activation” value is inactive: 7.95%.

Take `c1ccc(Nc2ccc(Nc3ccccc3)cc2)cc1`: the “activation” value was inactive: -54.3%.

Consider `Clc1nc(Cl)nc(Nc2ccccc2Cl)n1`, for which the “activation” value is inactive: -22.4%.

For `CCCCC(CC)COC(=O)c1ccc(C(=O)OCC(CC)CCCC)c(C(=O)OCC(CC)CCCC)c1` (stereo not drawn), the “activation” value was inactive: -12%.

Take `CO`: the “activation” value was inactive: -29.5%.

With `CCCN(CCC)[C@H]1CCc2c(F)ccc(O)c2C1`, the “activation” value is inactive: 13.7%.

Take `Cc1ccc(N)c([N+](=O)[O-])c1`: the “activation” value was inactive: -20.5%.

`c1ccc(Nc2cccc3ccccc23)cc1`: the “activation” value was inactive: 5.22%.

Turning to `COc1cc2c(c(OC)c1OC)-c1ccc(OC)c(=O)cc1[C@@H](NC(C)=O)CC2`, the Potency entry is “inactive”.

As for `Clc1cccc(C(Cl)(Cl)Cl)n1`, the “activation” value is inactive: 25.6%.

Regarding `CCCCc1ccc(C(=O)O)nc1`, the Potency result is “inactive”.

As to `CC(C#N)CCC#N` (stereo not drawn), the “activation” value was inactive: -10.7%.

As for `NC(N)=S`, the “activation” value was inactive: 18.3%.

Regarding `c1cc2ccc3cccc4ccc(c1)c2c34`, the “activation” value is inactive: 41.4%.

On to `OCCCBr`, for which the “activation” value was inactive: 3.42%.

`NC(=NCCC[C@H](N)C(=O)O)N[N+](=O)[O-]`: the “activation” value is inactive: 3.91%.
